# The whole screen tested about 330,000 compounds, of which about 4,200 (1.3%) were called active. The shares of active, inactive and inconclusive entries below differ from those in the screen. The call rests on the fitted dose curve; in most records, active means well fitted activation curve with a large enough effect; inconclusive means small, poorly fitted or top-dose-only effect; inactive means no such curve, though single readings can be large or run the other way. Potencies beside an inconclusive call are fits to weak or partial responses and may not hold up.
# Assay: qHTS screen for small molecules that induce genotoxicity in human embryonic kidney (HEK293T) cells expressing luciferase-tagged ELG1; further: nearly all actives have a fitted effect of over 60% in size; on activity change, positive = activation: % of control where 0% means no effect
# Details: HEK293T ELG1-luciferase reporter, luminescence, 16 h; series mostly up to 46 µM; activity change, positive = activation: at the top concentration
# Summary of the method: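 After overnight (16 hr) compound treatment at 37 °C, ELG1-luciferase HEK293T cells were lysed with ONE-Glo; luminescence quantified 30 min later at room temperature.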
# Potency means the concentration at half of the fitted maximal effect; tags describe the fitted curve by direction and shape.
Compound,Potency,"activity change, positive = activation"
COc1ccccc1-c1nnc(SC(C)C(=O)N2CCOCC2)o1 (stereo not given),"inconclusive: 7.3 µM [activator, partial curve, poor fit]",–
CCOC(=O)c1ccc(CSC(=N)N)o1,"inconclusive: 32.6 µM [activator, partial curve, poor fit]",–
CN(C)c1ccc(C(O)Cc2nc3ccccc3n2C)cc1 (stereo not given),active: 4.61 µM,–
COc1cc(/C=C/C(=O)OCC(=O)Nc2ccc3c(c2)OCCO3)ccc1O,–,inactive: -0.163%
CN(C)S(=O)(=O)c1cccc(NC(=O)c2sccc2-c2ccccc2)c1,"inconclusive: 20.6 µM [activator, partial curve, poor fit]",–
Cc1cc(NC(=O)c2ccccc2C)no1,"inconclusive: 18.3 µM [activator, partial curve]",–
COc1cccc(NC=C2C(=O)OC3(CCCCC3)OC2=O)c1,"inconclusive: 29.1 µM [activator, partial curve, poor fit]",–
NC(N)=Nc1nc(C2COc3ccccc3O2)cs1 (stereo not given),"inconclusive: 8.2 µM [activator, partial curve]",–
Cc1ccccc1NC(=O)/C(C#N)=C/c1ccc[nH]1,"inconclusive: 13 µM [activator, partial curve, poor fit]",–
COc1ccc2cc(-c3cccnc3)ncc2c1,"inconclusive: 9.2 µM [activator, partial curve]",–
C=CCn1c(-c2ccc(C)cc2)nc2ccccc21,"inconclusive: 32.6 µM [activator, partial curve, poor fit]",–
CCOC(=O)C(C)N1C(=O)S/C(=C/c2ccc3c(c2)n(C)c(=O)n3C)C1=O (stereo not given),"inconclusive: 14.6 µM [activator, partial curve, poor fit]",–
O=C(Nc1cccc(O)c1)c1c(O)c2ccccc2[nH]c1=O,"inconclusive: 1.78 µM [activator, partial curve, poor fit]",–
COc1ccccc1CNS(=O)(=O)c1ccc2c(c1)N(C(C)=O)CC(C)S2 (stereo not given),–,inactive: -0.845%
O=C(Nc1ccc(NC(=O)C23CC4CC(CC(C4)C2)C3)cn1)c1ccco1,active: 2.31 µM,–
Cc1ccc(-c2noc(C3CCCN(C(=O)c4ccccc4)C3)n2)o1 (stereo not given),active: 9.2 µM,–
O=C(Nc1ccc(-c2nc3c(ccc4ccccc43)o2)cc1)c1ccco1,"inconclusive: 10 µM [activator, partial curve, poor fit]",–
O=C(Nc1cccn2ncnc12)c1ccc(Cl)cc1,–,inactive: -4.65%
Cc1nc(-c2ccccc2)nc2[nH]ccc(=O)c12,"inconclusive: 16.4 µM [activator, single point]",–
c1ccc(-c2cc3ccccc3[nH]2)cc1,"inconclusive: 20.6 µM [activator, partial curve, poor fit]",–
COc1ccc(-c2csc(-c3cccnc3)n2)cc1C,"inconclusive: 9.2 µM [activator, partial curve]",–
Cc1cc(NC(=O)c2ccc3c(c2)OCCO3)ccc1NC(=O)c1ccco1,–,inactive: 9.54%
COC(=O)C1CCN(C(=O)c2oc3c(Cl)cc(C)cc3c2C)CC1,"inconclusive: 10.3 µM [activator, partial curve]",–

Compound,Potency,"activity change, positive = activation"
N#C/C(=C\c1ccco1)Sc1nc2ccccc2s1,"inconclusive: 20.6 µM [activator, single point]",–
COc1ccc(/C=N/Nc2ccc(C(=O)O)cc2)cc1Br,"inconclusive: 0.13 µM [activator, full curve]",–
Fc1ccccc1COc1ccc(C(=S)N2CCCC2)cc1,"inconclusive: 16.4 µM [activator, single point]",–
CCN(CC)c1ccc(/C=C(\C#N)c2ccccn2)cc1,"inconclusive: 0.82 µM [activator, partial curve, poor fit]",–
CC(C)Cc1nnc(NC(=O)c2ccc3c(c2)OCCO3)s1,"inconclusive: 1.46 µM [activator, full curve, poor fit]",–
Nc1ccc(N=Nc2ccccc2Cl)c(N)n1,"inconclusive: 9.2 µM [activator, partial curve]",–
CN(C)C(=O)CSc1cccc2cccnc12,"inconclusive: 20.6 µM [activator, partial curve, poor fit]",–
O=C(C[n+]1cc(-c2ccc(F)cc2)n2c1CCC2)c1cccs1,"inconclusive: 14.6 µM [activator, partial curve]",–
COc1ccc(Cc2nc(-c3ccc(Br)o3)no2)cc1OC,–,inactive: 5.95%
Cc1ccc(C)c(NC(=O)CSc2nc3nc(-c4cccs4)cc(C(F)(F)F)c3c(=O)[nH]2)c1,–,inactive: -7.48%
COc1ccccc1/C=C/C(=O)NNC(=O)c1cccs1,"inconclusive: 13 µM [activator, partial curve, poor fit]",–
CC(C)(C)c1ccc(OCCC(=O)OCC(=O)NC2CCS(=O)(=O)C2)cc1 (stereo not given),–,inactive: 0.32%
Nc1nc(SCc2ccc(Cl)c(Cl)c2)n[nH]1,"inconclusive: 20.6 µM [activator, partial curve, poor fit]",–
Cc1ccc(NC(=O)CN(C)S(=O)(=O)c2cccs2)cc1C,"inconclusive: 29.1 µM [activator, partial curve, poor fit]",–
O=C(Nc1ccc2c(c1)OCO2)C1CC(c2ccccc2Cl)=NO1 (stereo not given),"inconclusive: 20.6 µM [activator, partial curve, poor fit]",–
O=C(Cc1ccccc1)NCC(=O)OCC(=O)c1cccs1,–,inactive: 0.0786%
CS(=O)(=O)c1ccc2nc(NC(=O)c3cccs3)sc2c1,active: 0.92 µM,–
c1ccc(-n2ncc3c(NCCCN4CCOCC4)ncnc32)cc1,"inconclusive: 16.4 µM [activator, partial curve, poor fit]",–
O=c1c2ccccc2nnn1-c1ccc(Br)cc1,"inconclusive: 20.6 µM [activator, partial curve]",–
O=C(Nc1nc(-c2ccco2)cs1)c1ccccc1,"inconclusive: 8.2 µM [activator, partial curve, poor fit]",–
COc1ccc(Cl)cc1S(=O)(=O)N(C)CC(=O)NCc1ccc2c(c1)OCO2,–,inactive: 0.622%
C=CCn1c(=O)c2c(nc3n2CC(C)CN3CCc2ccccc2)n(C)c1=O (stereo not given),–,inactive: -2.38%

# Reference: PubChem BioAssay AID504466 (National Center for Advancing Translational Sciences (NCATS), 2011)
